Molecular target: T1, bovine serum albumin (BSA) (bovine, UniProt P02769)
T1 construct: Control antigen coated at 1% in PBS (pH 7.4); also called negative control antigen
Experiment: phage ELISA, 1% BSA coated, anti-M13-HRP detection
Description: Selected single-chain phage antibodies that were obtained in the screens described above were validated in ELISA for specific enterococcal binding activity, i.e. binding to one or more enterococcal strains prepared as described supra. 2.5×10⁸ bacteria were coated overnight at 4° C. to Maxisorp™ ELISA plates in 50 μl 50 mM carbonate buffer, pH 9.6. As negative controls, the complex antigens 2% ELK and 1% BSA both in PBS (pH 7.4) were coated. Wells were washed in PBS containing 0.1% (v/v) Tween-20 and blocked with 300 μl PBS containing 2% ELK for at least 1 hour at room temperature. The selected single-chain phage antibodies were incubated for 15 minutes in an equal volume of PBS containing 2% ELK to obtain blocked phage antibodies. The plates were emptied and the blocked single-chain phage antibodies were added to the wells. Incubation was allowed to proceed for one hour at room temperature, the plates were washed in PBS containing 0.1% (v/v) Tween-20 and bound phage antibodies were detected using an anti-M13 antibody conjugated to peroxidase. Absorbance at 492 nm was measured using a spectrophotometer. As a control, the procedure was performed simultaneously without single-chain phage antibody and with a negative control single-chain phage antibody directed against West Nile virus envelope protein (SC04-374).

T1 sequence (P02769 25-607 limits assumed): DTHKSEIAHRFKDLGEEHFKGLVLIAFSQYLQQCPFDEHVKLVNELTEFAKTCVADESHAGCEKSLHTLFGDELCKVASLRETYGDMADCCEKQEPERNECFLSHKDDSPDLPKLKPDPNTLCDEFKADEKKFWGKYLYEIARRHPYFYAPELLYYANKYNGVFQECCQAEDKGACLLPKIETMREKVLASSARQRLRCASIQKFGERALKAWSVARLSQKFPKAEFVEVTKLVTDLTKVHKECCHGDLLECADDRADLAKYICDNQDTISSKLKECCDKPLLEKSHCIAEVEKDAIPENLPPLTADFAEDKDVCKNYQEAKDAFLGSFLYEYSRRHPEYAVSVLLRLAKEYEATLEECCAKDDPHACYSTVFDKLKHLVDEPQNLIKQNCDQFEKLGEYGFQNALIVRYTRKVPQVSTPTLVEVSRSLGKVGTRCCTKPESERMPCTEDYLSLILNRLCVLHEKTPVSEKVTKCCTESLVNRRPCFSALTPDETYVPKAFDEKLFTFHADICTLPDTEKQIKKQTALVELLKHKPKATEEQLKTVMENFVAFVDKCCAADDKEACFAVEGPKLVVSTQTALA

B1: SC06-086 (scFv)
scFv: EVQLVESGAEVKKPGSSVKVSCKASGGTFSSYAISWVRQAPGQGLEWMGGIIPIFGTANYAQKFQGRVTITADESTSTAYMELSSLRSEDTAVYYCARGYAATDYGMDVWGQGTTVTVSSGTGGSGGTGSGTGGST[about 100 residues cut from this listing]FGPGTKVDIK
notes: Vl 137-243); also called single-chain phage antibody SC06-086
- OD492 nm: 0.062 OD492 nm
